Assay results from US20230109833A1, “METABOLICALLY STABLE N-ACYLAMINOOXADIAZOLES USEFUL AS ANTIBACTERIAL AGENTS” (MICROBIOTIX, INC., priority 2017, published 2023).

How the values were obtained:
[1] = Human liver microsome stability; format: in vitro ADME; details: after 5 min in the presence of microsomes; data not shown
[2] = Mouse liver microsome stability; details: after 5 min in the presence of microsomes; data not shown
[3] = test system: Neisseria gonorrhoeae strain H041 (STMR); details: 3.3 mg/kg PO once
Protocol: Two separate efficacy studies examined oral efficacy against a murine model of vaginal gonococcal infection. These studies utilized the strain H041, a highly drug-resistant Ng clinical isolate described by Ohnishi et. al. Antimicrob. Agents Chemother., 55(7): 3538 (2011). Each study was performed using both untreated and gentamycin (48 mg/kg IP, QD 5 days) controls (representing 2 experimental groups). In each of two experiments, the test agent was MBX-4132 given as an oral dosage at either 3.3 mg/kg or 10 mg/kg via a single oral dosage. Two days prior to experiments, female BALB/c mice were treated with 17 β-estradiol and antibiotics to increase their susceptibility to Ng as described previously (Jerse et. al., Frontiers Microbial., 2: 107 (2011)).
On day 0, mice were inoculated vaginally with 20 μl of strain H041 (STM^R) suspended in PBS; suspensions adjusted to 5×10^5 CFU/ml (infectious dose 80; ID80). For H041 (STM^R), the ID80 is 10^4 CFU/mouse. Vaginal swabs were quantitatively cultured for Ng on days 1 and 2 following vaginal inoculation to confirm infection prior to treatment. A portion of the swab sample was also inoculated onto HIA agar to monitor commensal flora. […] Vaginal swabs were quantitatively cultured for N. gonorrhoeae for 8 consecutive days following treatment. […] The number of viable bacteria recovered was determined using the Spiral Biotech Q-Counter Software. […]

Row | Compound | stability in the presence of human liver microsomes [1] | stability in the presence of mouse liver microsomes [2] | clearance rate of infection [3] [%]
1 | O=C(Nc1nnc(-c2ccc(F)cc2)o1)c1ccc(Cl)cc1 [KKL-35] | no detectable material | no detectable material | –
2 | O=C(Nc1nnc(-c2ccc(F)cc2)o1)N1CCc2ccccc2C1 [MBX-4132] | – | – | 60
